Laboratory results published in a collection of fitness landscapes (doi:10.1016/j.celrep.2020.107928).
In all, about 81,000 sequences were measured (“one-hybrid fitness for binding NBS DNA”: median about -0.1, highest 2% from about 0.36 on). The list shows a part of the results.

B1: Caulobacter ParB omega fusion; a variant is named by its letters at X, in order, B8GW30 (parent)
chain: MESVVVGEPGMSEGRRGLGRGLSALLGEVDAAPAQAPGEQLGGSREAPIEILQRNPDQPRRTFREEDLEDLSNSIREKGVLQPILVRPSPDTAGEYQIVAGERAWRAAQRAGLKTVPIMVRELDDLAVLEIGIIENVQRADLNVLEEALSYKVLMEKFERTQENIAQTIGKSXSHVANXMRLLXLPDEVQSYLVSGELTAXHARAIAAAADPVALAKQIIEGGLSVRETEALARKAPNLSAGKSKGGRPPRVKDTDTQALESDLSSVLGLDVSIDHRGSTGTLTITYATLEQLDDLCNRLTRGI

Variants of: B1
Test: one-hybrid fitness for binding NBS DNA (the Noc-binding site; scaled: cognate 1, non-cognate 0); higher = stronger binding
Details: with NBS DNA site
Summary of the method: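 Selection: bacterial one-hybrid in E. coli USO, HIS3 reporter with the site 19 bp from the promoter, 48 hours at 37°C on M9-minus-histidine plus 0.1 mM IPTG and 5 mM 3-AT. Libraries were Caulobacter ParB with four randomised specificity codons, sequenced on Illumina before and after selection. Fitness is the rescaled log change in variant-to-wild-type read ratio, anchored to the cognate and non-cognate sites.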
For RAMG, the “one-hybrid fitness for binding NBS DNA” value was at most 0.2. For RVCQ, the “one-hybrid fitness for binding NBS DNA” value was at most 0.2. ECNC was tested, and the “one-hybrid fitness for binding NBS DNA” value was at most 0.2. With IRVG the “one-hybrid fitness for binding NBS DNA” value was at most 0.2. In the case of FEMN, the “one-hybrid fitness for binding NBS DNA” value is reported as at most 0.2. For PYQR, the “one-hybrid fitness for binding NBS DNA” value was at most 0.2. QCTK was tested, and the “one-hybrid fitness for binding NBS DNA” value was at most 0.2. In the case of SAAP, the “one-hybrid fitness for binding NBS DNA” value is reported as at most 0.2. For EHMT, the “one-hybrid fitness for binding NBS DNA” value was at most 0.2. TKYC was tested, and the “one-hybrid fitness for binding NBS DNA” value was at most 0.2. For QKRE, the “one-hybrid fitness for binding NBS DNA” value was 0.248. KRVR was tested, and the “one-hybrid fitness for binding NBS DNA” value was 0.456. With RHCP the “one-hybrid fitness for binding NBS DNA” value was at most 0.2. For HAMG, the “one-hybrid fitness for binding NBS DNA” value was at most 0.2. With IRDG the “one-hybrid fitness for binding NBS DNA” value was at most 0.2. With EPAL the “one-hybrid fitness for binding NBS DNA” value was at most 0.2. For FKKG, the “one-hybrid fitness for binding NBS DNA” value was at most 0.2. FLKN was tested, and the “one-hybrid fitness for binding NBS DNA” value was at most 0.2. VEIT was tested, and the “one-hybrid fitness for binding NBS DNA” value was at most 0.2. RSYQ was tested, and the “one-hybrid fitness for binding NBS DNA” value was at most 0.2. With FMKF the “one-hybrid fitness for binding NBS DNA” value was at most 0.2. In the case of SQTM, the “one-hybrid fitness for binding NBS DNA” value is reported as at most 0.2. In the case of KACG, the “one-hybrid fitness for binding NBS DNA” value is reported as at most 0.2. In the case of QSVM, the “one-hybrid fitness for binding NBS DNA” value is reported as at most 0.2. For ATCW, the “one-hybrid fitness for binding NBS DNA” value was at most 0.2. In the case of MATH, the “one-hybrid fitness for binding NBS DNA” value is reported as at most 0.2. In the case of RGYI, the “one-hybrid fitness for binding NBS DNA” value is reported as at most 0.2. MDSC was tested, and the “one-hybrid fitness for binding NBS DNA” value was at most 0.2. With ICSL the “one-hybrid fitness for binding NBS DNA” value was at most 0.2. ALKN was tested, and the “one-hybrid fitness for binding NBS DNA” value was at most 0.2. SIEL was tested, and the “one-hybrid fitness for binding NBS DNA” value was at most 0.2. For LTAR, the “one-hybrid fitness for binding NBS DNA” value was at most 0.2. VLQP was tested, and the “one-hybrid fitness for binding NBS DNA” value was at most 0.2. With WIAS the “one-hybrid fitness for binding NBS DNA” value was at most 0.2. With IEAR the “one-hybrid fitness for binding NBS DNA” value was at most 0.2. In the case of DPSH, the “one-hybrid fitness for binding NBS DNA” value is reported as at most 0.2. In the case of PRVQ, the “one-hybrid fitness for binding NBS DNA” value is reported as at most 0.2. In the case of TRPN, the “one-hybrid fitness for binding NBS DNA” value is reported as at most 0.2. For KAAY, the “one-hybrid fitness for binding NBS DNA” value was at most 0.2. For DVYG, the “one-hybrid fitness for binding NBS DNA” value was at most 0.2. In the case of GVQV, the “one-hybrid fitness for binding NBS DNA” value is reported as at most 0.2. With QTMD the “one-hybrid fitness for binding NBS DNA” value was at most 0.2. In the case of TYYY, the “one-hybrid fitness for binding NBS DNA” value is reported as at most 0.2. With RTVE the “one-hybrid fitness for binding NBS DNA” value was at most 0.2. For RQYA, the “one-hybrid fitness for binding NBS DNA” value was at most 0.2. In the case of PWAS, the “one-hybrid fitness for binding NBS DNA” value is reported as at most 0.2. MMLF was tested, and the “one-hybrid fitness for binding NBS DNA” value was at most 0.2. With ESRC the “one-hybrid fitness for binding NBS DNA” value was at most 0.2. In the case of SICY, the “one-hybrid fitness for binding NBS DNA” value is reported as at most 0.2. For HAPC, the “one-hybrid fitness for binding NBS DNA” value was at most 0.2. With SMNV the “one-hybrid fitness for binding NBS DNA” value was at most 0.2. With TNQS the “one-hybrid fitness for binding NBS DNA” value was at most 0.2. With EPGF the “one-hybrid fitness for binding NBS DNA” value was at most 0.2. QPDK was tested, and the “one-hybrid fitness for binding NBS DNA” value was at most 0.2. For PEVT, the “one-hybrid fitness for binding NBS DNA” value was at most 0.2. In the case of FPRG, the “one-hybrid fitness for binding NBS DNA” value is reported as at most 0.2. LVLM was tested, and the “one-hybrid fitness for binding NBS DNA” value was at most 0.2. For HRNE, the “one-hybrid fitness for binding NBS DNA” value was at most 0.2. For SAKF, the “one-hybrid fitness for binding NBS DNA” value was at most 0.2. In the case of LAGG, the “one-hybrid fitness for binding NBS DNA” value is reported as at most 0.2. EITG was tested, and the “one-hybrid fitness for binding NBS DNA” value was at most 0.2. In the case of WGVS, the “one-hybrid fitness for binding NBS DNA” value is reported as at most 0.2. With SCSI the “one-hybrid fitness for binding NBS DNA” value was at most 0.2. DRQV was tested, and the “one-hybrid fitness for binding NBS DNA” value was at most 0.2. MPRP was tested, and the “one-hybrid fitness for binding NBS DNA” value was at most 0.2. In the case of PVIG, the “one-hybrid fitness for binding NBS DNA” value is reported as at most 0.2. For SERW, the “one-hybrid fitness for binding NBS DNA” value was at most 0.2. LTND was tested, and the “one-hybrid fitness for binding NBS DNA” value was at most 0.2. With QAPY the “one-hybrid fitness for binding NBS DNA” value was at most 0.2. In the case of PIQQ, the “one-hybrid fitness for binding NBS DNA” value is reported as at most 0.2. With TLNE the “one-hybrid fitness for binding NBS DNA” value was at most 0.2. In the case of PSKG, the “one-hybrid fitness for binding NBS DNA” value is reported as at most 0.2. With YPHD the “one-hybrid fitness for binding NBS DNA” value was at most 0.2. With EMAC the “one-hybrid fitness for binding NBS DNA” value was at most 0.2. With KFPC the “one-hybrid fitness for binding NBS DNA” value was at most 0.2. For MHVT, the “one-hybrid fitness for binding NBS DNA” value was at most 0.2. In the case of IGDW, the “one-hybrid fitness for binding NBS DNA” value is reported as at most 0.2. With TPYY the “one-hybrid fitness for binding NBS DNA” value was at most 0.2. For SSWT, the “one-hybrid fitness for binding NBS DNA” value was at most 0.2. With PGIS the “one-hybrid fitness for binding NBS DNA” value was at most 0.2. With APTG the “one-hybrid fitness for binding NBS DNA” value was at most 0.2. With LTSD the “one-hybrid fitness for binding NBS DNA” value was at most 0.2. With KSNN the “one-hybrid fitness for binding NBS DNA” value was at most 0.2. With VLHP the “one-hybrid fitness for binding NBS DNA” value was at most 0.2. GGDL was tested, and the “one-hybrid fitness for binding NBS DNA” value was at most 0.2. In the case of FWPG, the “one-hybrid fitness for binding NBS DNA” value is reported as at most 0.2. In the case of HRTD, the “one-hybrid fitness for binding NBS DNA” value is reported as at most 0.2. For AYDW, the “one-hybrid fitness for binding NBS DNA” value was at most 0.2. For GRAS, the “one-hybrid fitness for binding NBS DNA” value was at most 0.2. For NAIH, the “one-hybrid fitness for binding NBS DNA” value was at most 0.2. In the case of FRKN, the “one-hybrid fitness for binding NBS DNA” value is reported as at most 0.2. With PLSY the “one-hybrid fitness for binding NBS DNA” value was at most 0.2. VRLC was tested, and the “one-hybrid fitness for binding NBS DNA” value was at most 0.2. In the case of NRVS, the “one-hybrid fitness for binding NBS DNA” value is reported as at most 0.2. With MWWS the “one-hybrid fitness for binding NBS DNA” value was at most 0.2. In the case of EDLS, the “one-hybrid fitness for binding NBS DNA” value is reported as at most 0.2. With KLYC the “one-hybrid fitness for binding NBS DNA” value was at most 0.2. With QSME the “one-hybrid fitness for binding NBS DNA” value was at most 0.2. In the case of ATCR, the “one-hybrid fitness for binding NBS DNA” value is reported as at most 0.2. With PLYT the “one-hybrid fitness for binding NBS DNA” value was at most 0.2. In the case of PAMG, the “one-hybrid fitness for binding NBS DNA” value is reported as at most 0.2. WLRR was tested, and the “one-hybrid fitness for binding NBS DNA” value was at most 0.2. With IAFM the “one-hybrid fitness for binding NBS DNA” value was at most 0.2. In the case of MMPT, the “one-hybrid fitness for binding NBS DNA” value is reported as at most 0.2. With PKKC the “one-hybrid fitness for binding NBS DNA” value was at most 0.2. With KMYA the “one-hybrid fitness for binding NBS DNA” value was at most 0.2. With KWAS the “one-hybrid fitness for binding NBS DNA” value was at most 0.2. With STRP the “one-hybrid fitness for binding NBS DNA” value was at most 0.2. For CRVM, the “one-hybrid fitness for binding NBS DNA” value was at most 0.2. With EYTA the “one-hybrid fitness for binding NBS DNA” value was at most 0.2. ERQG was tested, and the “one-hybrid fitness for binding NBS DNA” value was at most 0.2. For STTK, the “one-hybrid fitness for binding NBS DNA” value was at most 0.2. IYIV was tested, and the “one-hybrid fitness for binding NBS DNA” value was at most 0.2. In the case of HSTR, the “one-hybrid fitness for binding NBS DNA” value is reported as at most 0.2. QCSF was tested, and the “one-hybrid fitness for binding NBS DNA” value was at most 0.2. For FHHC, the “one-hybrid fitness for binding NBS DNA” value was at most 0.2. For TKVY, the “one-hybrid fitness for binding NBS DNA” value was at most 0.2. In the case of ERVG, the “one-hybrid fitness for binding NBS DNA” value is reported as at most 0.2. In the case of APPL, the “one-hybrid fitness for binding NBS DNA” value is reported as at most 0.2. For DGGS, the “one-hybrid fitness for binding NBS DNA” value was at most 0.2. PPMF was tested, and the “one-hybrid fitness for binding NBS DNA” value was at most 0.2. YPFC was tested, and the “one-hybrid fitness for binding NBS DNA” value was at most 0.2. In the case of AAEP, the “one-hybrid fitness for binding NBS DNA” value is reported as at most 0.2. With PSLW the “one-hybrid fitness for binding NBS DNA” value was at most 0.2. With DRVV the “one-hybrid fitness for binding NBS DNA” value was at most 0.2. With TCIR the “one-hybrid fitness for binding NBS DNA” value was at most 0.2. In the case of FDRV, the “one-hybrid fitness for binding NBS DNA” value is reported as at most 0.2. With VVFC the “one-hybrid fitness for binding NBS DNA” value was at most 0.2. For RIMW, the “one-hybrid fitness for binding NBS DNA” value was 0.253. For TWAF, the “one-hybrid fitness for binding NBS DNA” value was at most 0.2. CLRW was tested, and the “one-hybrid fitness for binding NBS DNA” value was at most 0.2. NWHD was tested, and the “one-hybrid fitness for binding NBS DNA” value was at most 0.2. EHCS was tested, and the “one-hybrid fitness for binding NBS DNA” value was at most 0.2. For CEFR, the “one-hybrid fitness for binding NBS DNA” value was at most 0.2. For HDTY, the “one-hybrid fitness for binding NBS DNA” value was at most 0.2. KTDA was tested, and the “one-hybrid fitness for binding NBS DNA” value was at most 0.2. With NFAG the “one-hybrid fitness for binding NBS DNA” value was at most 0.2. In the case of CLIH, the “one-hybrid fitness for binding NBS DNA” value is reported as at most 0.2. For YDWG, the “one-hybrid fitness for binding NBS DNA” value was at most 0.2. For GGSF, the “one-hybrid fitness for binding NBS DNA” value was at most 0.2. For VSHT, the “one-hybrid fitness for binding NBS DNA” value was at most 0.2. PQGY was tested, and the “one-hybrid fitness for binding NBS DNA” value was at most 0.2. HAQY was tested, and the “one-hybrid fitness for binding NBS DNA” value was at most 0.2. For QKID, the “one-hybrid fitness for binding NBS DNA” value was at most 0.2. For LREM, the “one-hybrid fitness for binding NBS DNA” value was at most 0.2. With VWKI the “one-hybrid fitness for binding NBS DNA” value was at most 0.2. In the case of LEDW, the “one-hybrid fitness for binding NBS DNA” value is reported as at most 0.2. In the case of LSRH, the “one-hybrid fitness for binding NBS DNA” value is reported as at most 0.2. QRSI was tested, and the “one-hybrid fitness for binding NBS DNA” value was 0.296. NTAE was tested, and the “one-hybrid fitness for binding NBS DNA” value was at most 0.2. In the case of AIWC, the “one-hybrid fitness for binding NBS DNA” value is reported as at most 0.2. With YTST the “one-hybrid fitness for binding NBS DNA” value was at most 0.2. For NIAY, the “one-hybrid fitness for binding NBS DNA” value was at most 0.2.
